T1: CD80 (B7-1) expressed on Raji cells (UniProt P33681 35-288)
T1 sequence (looked up): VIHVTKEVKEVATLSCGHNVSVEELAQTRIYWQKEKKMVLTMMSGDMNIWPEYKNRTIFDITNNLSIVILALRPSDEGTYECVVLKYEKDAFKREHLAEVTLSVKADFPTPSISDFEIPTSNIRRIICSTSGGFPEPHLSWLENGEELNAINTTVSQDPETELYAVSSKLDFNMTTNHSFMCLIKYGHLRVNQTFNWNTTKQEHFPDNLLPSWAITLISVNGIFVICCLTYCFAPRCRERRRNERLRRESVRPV

T2: CD86 (B7-2) expressed on Raji cells (UniProt P42081 24-329)
T2 sequence (looked up): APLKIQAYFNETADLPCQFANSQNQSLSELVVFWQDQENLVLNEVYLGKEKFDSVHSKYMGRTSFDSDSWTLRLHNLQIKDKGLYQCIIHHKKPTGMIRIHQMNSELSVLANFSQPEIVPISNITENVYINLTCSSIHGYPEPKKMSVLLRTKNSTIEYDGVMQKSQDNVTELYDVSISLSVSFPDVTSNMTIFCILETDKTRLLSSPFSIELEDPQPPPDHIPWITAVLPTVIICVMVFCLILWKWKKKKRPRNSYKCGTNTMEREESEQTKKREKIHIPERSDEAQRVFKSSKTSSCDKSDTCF

T3: human CD80 extracellular domain with FLAG 10xhis tag (human)
T3 construct: The printed range 1-242 counts on the Swiss-Prot entry and includes the leader; Tag placed C-terminal by inference; also called human CD80 ligand
T3 chain: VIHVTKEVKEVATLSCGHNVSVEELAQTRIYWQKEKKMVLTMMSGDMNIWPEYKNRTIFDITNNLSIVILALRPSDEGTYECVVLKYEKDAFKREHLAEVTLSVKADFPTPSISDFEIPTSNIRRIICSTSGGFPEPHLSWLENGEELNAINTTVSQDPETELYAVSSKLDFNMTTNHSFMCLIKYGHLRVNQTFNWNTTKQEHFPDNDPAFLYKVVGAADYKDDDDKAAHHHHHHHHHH

T4: cynomolgus monkey CD80 extracellular domain with FLAG 10xhis tag (cynomolgus monkey)
T4 construct: Printed range includes the leader; Tag placed C-terminal by inference; also called Cyno; CD80
T4 chain: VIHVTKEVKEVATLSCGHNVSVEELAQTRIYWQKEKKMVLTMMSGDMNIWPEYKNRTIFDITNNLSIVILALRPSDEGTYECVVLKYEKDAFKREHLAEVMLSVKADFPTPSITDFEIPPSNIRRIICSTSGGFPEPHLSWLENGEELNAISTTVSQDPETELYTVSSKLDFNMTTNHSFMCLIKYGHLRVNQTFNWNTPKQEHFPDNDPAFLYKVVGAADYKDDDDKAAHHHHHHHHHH

T5: mouse CD80 extracellular domain with FLAG 10xhis tag (mouse)
T5 construct: Printed range includes the leader; Tag placed C-terminal by inference
T5 chain: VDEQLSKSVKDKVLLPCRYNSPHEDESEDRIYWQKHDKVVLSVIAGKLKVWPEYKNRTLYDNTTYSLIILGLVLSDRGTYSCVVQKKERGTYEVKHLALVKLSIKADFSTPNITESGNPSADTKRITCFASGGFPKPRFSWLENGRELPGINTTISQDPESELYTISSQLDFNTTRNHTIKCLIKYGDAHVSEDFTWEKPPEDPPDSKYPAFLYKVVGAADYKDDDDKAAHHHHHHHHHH

T6: mouse CD86 extracellular domain with FLAG 10xhis tag (mouse)
T6 construct: Printed range includes the leader; Tag placed C-terminal by inference
T6 chain: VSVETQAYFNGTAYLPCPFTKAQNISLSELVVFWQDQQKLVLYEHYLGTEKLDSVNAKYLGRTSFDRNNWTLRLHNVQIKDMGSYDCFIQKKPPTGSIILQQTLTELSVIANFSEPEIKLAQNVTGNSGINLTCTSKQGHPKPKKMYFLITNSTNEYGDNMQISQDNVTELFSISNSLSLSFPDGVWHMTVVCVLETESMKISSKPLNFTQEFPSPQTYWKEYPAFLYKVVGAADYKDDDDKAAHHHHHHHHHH

B1: wild type CTLA-4 (SEQ ID NO: 35) in Fc fusion format (Fc fusion)
chain: not shown
notes: also called CTLA-4 wild type Fc fusion protein
B2: CTLA-4 Variant 1227 in Fc fusion format (Fc fusion)
chain: MHVAQPAVVLASSRGSASFVCEYANPSKATEVRVTVLRQADSQVTEVCAATYMMGNEATFLDDSICTGTASGNQVNLTIQGLRAQDTGLYICHVELMYPPPYYLGIGNGTQIYVIDPEPCPDSDV[letters of human IgG1 Fc omitted]
B3: CTLA-4 Variant 1114 in Fc fusion format (Fc fusion)
chain: MHVAQPAVVLASSRGRASFVCEYANPGKATEVRVTVLRQADSQVTEVCAATYMMGNEGTFLDDSICTGTTSGNQVNLTIQGLRAKDTGLYICQVELMYPPPYYLGIGNGTQIYVIDPEPCPDSDV[letters of human IgG1 Fc omitted]
B4: CTLA-4 Variant 1321 in Fc fusion format (Fc fusion)
chain: MHVAQPAVVLASSRGSASFVCEYANPGKATEVRVTVLRQADSQVTEVCAATYMKGNEGTFLDDSICTGTASGNQVNLTIRGLRASDTGLYICQVELMYPPPYYLGIGNGTQIYVIDPEPCPDSDV[letters of human IgG1 Fc omitted]
B5: CTLA-4 Variant 1115 in Fc fusion format (Fc fusion)
chain: MHVAQPAVVLASSRGVASFVCEYANPGKATEVRVTVLRQADSQVTEVCAATYMMGNEGTFLDDSICTGTASGNQVNLTIQGLRAQDTGLYICQVELMYPPPYYLGIGNGTQIYVIDPEPCPDSDV[letters of human IgG1 Fc omitted]
B6: CTLA-4 Variant 1315 in Fc fusion format (Fc fusion)
chain: MHVAQPAVVLASSRGSASFVCEYANPGKATEVRVTVLRQADSQVTEVCAATYMMGNEGTFLDDSICTGTASGNQVNLTIRGLRASDTGLYICQVELMYPPPYYLGIGNGTQIYVIDPEPCPDSDV[letters of human IgG1 Fc omitted]
B7: CTLA-4 Variant 1322 in Fc fusion format (Fc fusion)
chain: MHVAQPAVVLASSRGIASFVCEYANPSKATEVRVTVLRQADSQVTEVCAATYMKGSELSTQDYPNCTGTSSGNQVNLTIQGLRAMDTGLYICQVELMYPPPYYLGIGNGTQIYVIDPEPCPDSDV[letters of human IgG1 Fc omitted]
B8: CTLA-4 Variant 1299 in Fc fusion format (Fc fusion)
chain: MHVAQPAVVLASSRGRASFVCEYTNPSKATEVRVTVLRQADSQVTEVCAATYMMGNEATFLDDSICTGTASGNQVNLTIQGLRAQDTGLYICQVELMYPPPYYLGIGNGTQIYVIDPEPCPDSDV[letters of human IgG1 Fc omitted]
notes: deposit NCIMB 41948

Columns and labels:
[1] = biological target: T1, CD80 (B7-1) expressed on Raji cells; assay: cell-based or functional assay
[2] = biological target: T2, CD86 (B7-2) expressed on Raji cells; assay: cell-based or functional assay
[3] = biological target: T3, human CD80 extracellular domain with …; assay: SPR, as described in the filing
[4] = biological target: T3, human CD80 extracellular domain with …; assay: SPR (Biacore 2000), ratio of KD
[5] = biological target: T4, cynomolgus monkey CD80 extracellular …; assay: SPR (Biacore 2000), ratio of KD
[6] = biological target: T5, mouse CD80 extracellular domain with …; assay: SPR (Biacore 2000), ratio of KD
[7] = biological target: T6, mouse CD86 extracellular domain with …; assay: SPR (Biacore 2000), ratio of KD
[8] = biological target: T3, human CD80 extracellular domain with …; assay: SPR (Biacore 2000), CTLA-4-Fc amine-coupled to CM5, ligand ECD as analyte, monovalent affinity
[9] = biological target: T4, cynomolgus monkey CD80 extracellular …; assay: as above
[10] = biological target: T5, mouse CD80 extracellular domain with …; assay: as above
[11] = biological target: T6, mouse CD86 extracellular domain with …; assay: as above

Row | Binder | Fold Improvement over Wild Type (SEQ ID NO: 35), Raji/Jurkat IC50 [1] | Fold Improvement over Wild Type (SEQ ID NO: 35), Raji/Jurkat IC50 [2] | fold greater affinity for binding CD80 than for binding CD86 [3] | fold-improvement in affinity over wild type CTLA-4 in Fc fusion format [4] | fold-improvement in affinity over wild type CTLA-4 in Fc fusion format [5] | fold-improvement in affinity over wild type CTLA-4 in Fc fusion format [6] | fold-improvement in affinity over wild type CTLA-4 in Fc fusion format [7] | Kd [8] | Kd [9] | Kd [10] | Kd [11] | Raji/Jurkat Dual Cell Assay IC50 (IL-2 release) [1] | Raji/Jurkat Dual Cell Assay IC50 (IL-2 release) [2]
1 | B1 | 1 fold | 1 fold | ~4 fold | 1 fold | 1 fold | 1 fold | 1 fold | 1540 nM | 1550 nM | 2950 nM | 5.55 µM | – | –
2 | B2 | 19 fold | 19 fold | – | 140 fold | 172 fold | – | – | 11 nM | 9 nM | – | – | 1.6 nM | 1.6 nM
3 | B3 | 21 fold | 21 fold | – | 37 fold | 40 fold | 1 fold | 1 fold | 42 nM | 39 nM | 2170 nM | 4.86 µM | 1.4 nM | 1.4 nM
4 | B4 | 68 fold | 68 fold | – | 67 fold | 82 fold | – | – | 23 nM | 19 nM | – | – | 0.44 nM | 0.44 nM
5 | B5 | 67 fold | 67 fold | – | 77 fold | 86 fold | – | – | 20 nM | 18 nM | – | – | 0.44 nM | 0.44 nM
6 | B6 | 123 fold | 123 fold | – | 77 fold | 91 fold | – | – | 20 nM | 17 nM | – | – | 0.24 nM | 0.24 nM
7 | B7 | 91 fold | 91 fold | – | 193 fold | 258 fold | – | – | 8 nM | 6 nM | – | – | 0.33 nM | 0.33 nM
8 | B8 | 56 fold | 56 fold | – | 128 fold | 155 fold | – | – | 12 nM | 10 nM | – | – | 0.53 nM | 0.53 nM
